Reference: the supplement of paper PMC7826260
The list shows a part of the results. Each Rep nickase domain was tested in vitro on the same pool of single strands at 3 µM enzyme and 37 °C for 1 h; the strands have 90 letters, of which the middle is given. The score is log2 (uncut reads / reads without enzyme); the lower, the more was cut; hits are not called. Shares of all reads are compared; uncut strands gain when others are lost, and binding without cutting may add a little.

Assays:
Assay in all cases: uncleaved DNA left, log2 of reads against the no-enzyme library (log2 ratio); higher = less cleavage (more negative = more Rep cleavage of the k-mer); sequences stand for … in CTCGTCCG…ACCGGAGA
[1] = tested on: T1, Rep nickase domain of Muscovy duck circovirus
T1 sequence (protein, residues 1-111, tag omitted): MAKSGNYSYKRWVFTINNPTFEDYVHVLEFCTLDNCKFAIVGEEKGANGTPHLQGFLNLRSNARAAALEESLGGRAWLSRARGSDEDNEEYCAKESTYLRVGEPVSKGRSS
Experimental: (§1)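 A pool of 90-nt single-stranded DNAs with seven random bases just before the constant AC of the nick site (name = the seven bases) was cut by 3 µM recombinant His6-SUMO-tagged Rep nickase domain (300 nM DNA, 50 mM HEPES pH 8.0, 50 mM NaCl, 1 mM MnCl2, 1 h, 37 °C, three replicates). Uncut DNA was amplified and sequenced.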

[2] = tested on: T2, Rep nickase domain of banana bunchy top virus
T2 sequence (protein, residues 1-94, tag omitted): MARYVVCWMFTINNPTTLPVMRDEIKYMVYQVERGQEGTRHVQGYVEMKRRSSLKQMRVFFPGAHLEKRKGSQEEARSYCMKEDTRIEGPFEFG
Experimental: as §1

[3] = tested on: T3, Rep nickase domain of cabbage leaf curl virus
T3 sequence (protein, residues 1-116, tag omitted): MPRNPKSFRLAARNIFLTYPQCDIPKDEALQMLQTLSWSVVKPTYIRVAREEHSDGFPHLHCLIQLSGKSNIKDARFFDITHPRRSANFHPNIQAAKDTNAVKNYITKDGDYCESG
Experimental: as §1

[4] = tested on: T4, Rep nickase domain of chickpea chlorotic dwarf virus
T4 sequence (protein, residues 1-124, tag omitted): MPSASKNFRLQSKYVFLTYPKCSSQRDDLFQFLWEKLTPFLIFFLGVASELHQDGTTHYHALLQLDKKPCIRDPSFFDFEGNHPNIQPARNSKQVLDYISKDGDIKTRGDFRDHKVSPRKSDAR
Experimental: as §1

[5] = tested on: T5, Rep nickase domain of faba bean necrotic yellows virus
T5 sequence (protein, residues 1-98, tag omitted): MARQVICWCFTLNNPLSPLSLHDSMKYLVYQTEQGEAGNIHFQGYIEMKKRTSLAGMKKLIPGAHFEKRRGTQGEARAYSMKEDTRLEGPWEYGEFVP
Experimental: as §1

[6] = tested on: T6, Rep nickase domain of maize striate mosaic virus
T6 sequence (protein, residues 1-117, tag omitted): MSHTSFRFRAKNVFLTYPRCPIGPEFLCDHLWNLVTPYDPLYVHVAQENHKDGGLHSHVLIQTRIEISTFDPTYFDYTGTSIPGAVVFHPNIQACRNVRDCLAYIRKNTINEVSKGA
Experimental: as §1

[7] = tested on: T7, Rep nickase domain of porcine circovirus 2
T7 sequence (protein, residues 2-116, tag omitted): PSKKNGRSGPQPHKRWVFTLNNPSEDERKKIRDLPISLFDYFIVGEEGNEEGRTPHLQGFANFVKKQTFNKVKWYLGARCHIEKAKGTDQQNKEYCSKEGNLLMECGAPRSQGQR
Experimental: as §1

[8] = tested on: T8, Rep nickase domain of tomato golden mosaic virus
T8 sequence (protein, residues 1-124, tag omitted): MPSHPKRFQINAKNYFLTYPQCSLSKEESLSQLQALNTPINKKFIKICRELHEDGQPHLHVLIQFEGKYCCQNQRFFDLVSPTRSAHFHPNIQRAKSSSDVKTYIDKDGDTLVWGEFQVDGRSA
Experimental: as §1

[9] = tested on: T9, Rep nickase domain of tomato yellow leaf curl virus
T9 sequence (protein, residues 1-136, tag omitted): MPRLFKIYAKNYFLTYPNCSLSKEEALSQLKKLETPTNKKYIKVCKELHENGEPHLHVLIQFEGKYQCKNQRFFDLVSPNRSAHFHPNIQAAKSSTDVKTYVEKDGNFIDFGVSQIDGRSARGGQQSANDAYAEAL
Experimental: as §1

[10] = tested on: T10, Rep nickase domain of wheat dwarf virus
T10 sequence (protein, residues 1-137, tag omitted): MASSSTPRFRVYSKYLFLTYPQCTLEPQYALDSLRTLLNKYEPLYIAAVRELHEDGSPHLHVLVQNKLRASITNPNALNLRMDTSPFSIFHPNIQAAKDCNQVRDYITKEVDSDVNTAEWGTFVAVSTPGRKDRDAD
Experimental: as §1

Sequence | uncleaved DNA left (log2) [1] | uncleaved DNA left (log2) [2] | uncleaved DNA left (log2) [3] | uncleaved DNA left (log2) [4] | uncleaved DNA left (log2) [5] | uncleaved DNA left (log2) [6] | uncleaved DNA left (log2) [7] | uncleaved DNA left (log2) [8] | uncleaved DNA left (log2) [9] | uncleaved DNA left (log2) [10]
TACACGG | 0.0722 | 0.138 | 0.576 | 1.57 | 0.0519 | 1.97 | 0.159 | 0.205 | 0.0378 | 0.226
CTGTAGG | -0.0145 | -0.0801 | 0.051 | 0.761 | -0.0721 | 0.00788 | 0.0118 | 0.00479 | -0.201 | -0.141
CTGTCGC | -0.108 | -0.0677 | -0.753 | -0.719 | -0.074 | -1.08 | 0.0402 | -0.181 | -0.0411 | -0.221
GGCTATC | -0.0599 | -0.0549 | 0.389 | 1.07 | -0.0795 | 1.57 | -0.0231 | -0.254 | -0.0337 | -0.0148
AAGGTTT | -0.106 | 0.0106 | 0.126 | 0.722 | -0.0361 | 1.46 | -0.894 | 0.037 | -0.132 | -0.0599
ATGGCCA | -0.0574 | 0.11 | -0.00599 | -0.214 | -0.000284 | -0.048 | -0.0588 | 0.0892 | 0.17 | 0.0764
GAACTCC | 0.00141 | 0.0214 | 0.14 | 0.199 | 0.00693 | 1.03 | 0.0178 | 0.0312 | 0.0399 | 0.0513
GCAAGGA | 0.0179 | 0.0495 | 0.12 | 0.368 | 0.0471 | -0.0546 | 0.137 | 0.071 | -0.0469 | 0.021
CTAACAC | 0.00429 | -0.0394 | -0.501 | -1.65 | 0.0565 | -0.843 | 0.0433 | -0.00702 | -0.0312 | -0.133
AATTGGT | -3.12 | -1.36 | -0.0537 | 0.231 | -0.0212 | 0.345 | -3.46 | 0.014 | -0.094 | 0.086
AAATGCG | -0.0521 | -0.078 | 0.102 | 1.36 | 0.0238 | 1.17 | 0.0668 | -0.0413 | -0.11 | -0.0253
AATCAGG | 0.0894 | 0.0507 | 0.433 | 1.12 | 0.175 | 0.8 | 0.267 | 0.158 | -0.0912 | 0.243
ATGTGCC | -0.0776 | -0.0922 | -0.421 | -0.393 | 0.0548 | -1.05 | -0.00729 | -0.0665 | -0.0568 | -0.098
TATCCTA | -0.0377 | -0.0493 | -0.00388 | -2 | 0.0322 | -0.21 | -0.203 | -0.00467 | 0.071 | 0.0886
CCGGCGG | -0.0615 | -0.116 | 0.0676 | 0.655 | -0.128 | 0.807 | 0.00937 | -0.0475 | -0.237 | -0.258
